The supplement of paper PMC8728848
The other results are listed elsewhere or left out.

Experiments:
Experiment in all cases: glycan array binding signal (z-score within array); higher = stronger binding
Settings in all cases: glycan notation: IUPAC condensed, linker removed
[1] = biological target: Gal(b1-2)Gal
Method in brief: (§1)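 Arrays were curated from the Consortium for Functional Glycomics database, 3228 in total, and kept only where the protein sequence was available. Binding is expressed as a within-array Z-score. This score was averaged across arrays of the same protein sequence at different concentrations or buffers and across linkers, and negative values can be read as non-binding.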

[2] = biological target: Gal(b1-3)Gal
Method in brief: as §1

[3] = biological target: Gal(b1-3)Gal(b1-4)GlcNAc
Method in brief: as §1

[4] = biological target: Gal(b1-3)GalNAc
Method in brief: as §1

[5] = biological target: Gal(b1-3)GalNAc(a1-3)[Fuc(a1-2)]Gal(b1-4)Glc
Method in brief: as §1

[6] = biological target: Gal(b1-3)GalNAc(a1-3)[Fuc(a1-2)]Gal(b1-4)GlcNAc
Method in brief: as §1

[7] = biological target: Gal(b1-3)GalNAc(b1-3)Gal
Method in brief: as §1

[8] = biological target: Gal(b1-3)GalNAc(b1-3)Gal(a1-4)Gal(b1-4)Glc
Method in brief: as §1

[9] = biological target: Gal(b1-3)GalNAc(b1-4)Gal(b1-4)Glc
Method in brief: as §1

[10] = biological target: Gal(b1-3)GalNAc(b1-4)[Neu5Ac(a2-3)]Gal(b1-4)Glc
Method in brief: as §1

[11] = biological target: Gal(b1-3)GlcNAc
Method in brief: as §1

[12] = biological target: Gal(b1-3)GlcNAc(a1-3)Gal(b1-4)GlcNAc
Method in brief: as §1

[13] = biological target: Gal(b1-3)GlcNAc(a1-6)Gal(b1-4)GlcNAc
Method in brief: as §1

[14] = biological target: Gal(b1-3)GlcNAc(b1-2)Man
Method in brief: as §1

[15] = biological target: Gal(b1-3)GlcNAc(b1-2)Man(a1-3)[Gal(b1-3)GlcNAc(b1-2)Man(a1-6)]Man(b1-4)GlcNAc(b1-4)GlcNAc
Method in brief: as §1

[16] = biological target: Gal(b1-3)GlcNAc(b1-2)Man(a1-3)[Gal(b1-3)GlcNAc(b1-2)Man(a1-6)]Man(b1-4)GlcNAc(b1-4)[Fuc(a1-6)]GlcNAc
Method in brief: as §1

[17] = biological target: Gal(b1-3)GlcNAc(b1-2)Man(a1-3)[GlcNAc(b1-4)][Gal(b1-3)GlcNAc(b1-2)Man(a1-6)]Man(b1-4)GlcNAc(b1-4)GlcNAc
Method in brief: as §1

[18] = biological target: Gal(b1-3)GlcNAc(b1-2)[Gal(b1-3)GlcNAc(b1-6)]Man(a1-6)[Gal(b1-3)GlcNAc(b1-2)Man(a1-3)]Man(b1-4)GlcNAc(b1-4)GlcNAc
Method in brief: as §1

[19] = biological target: Gal(b1-3)GlcNAc(b1-3)Gal(b1-3)GlcNAc
Method in brief: as §1

[20] = biological target: Gal(b1-3)GlcNAc(b1-3)Gal(b1-4)Glc
Method in brief: as §1

[21] = biological target: Gal(b1-3)GlcNAc(b1-3)Gal(b1-4)GlcNAc
Method in brief: as §1

[22] = biological target: Gal(b1-3)GlcNAc(b1-3)Gal(b1-4)GlcNAc(b1-2)Man(a1-3)[Gal(b1-3)GlcNAc(b1-3)Gal(b1-4)GlcNAc(b1-2)Man(a1-6)]Man(b1-4)GlcNAc(b1-4)GlcNAc
Method in brief: as §1

[23] = biological target: Gal(b1-3)GlcNAc(b1-3)Gal(b1-4)GlcNAc(b1-2)[Gal(b1-3)GlcNAc(b1-3)Gal(b1-4)GlcNAc(b1-6)]Man(a1-6)[Gal(b1-3)GlcNAc(b1-3)Gal(b1-4)GlcNAc(b1-2)Man(a1-3)]Man(b1-4)GlcNAc(b1-4)[Fuc(a1-6)]GlcNAc
Method in brief: as §1

[24] = biological target: Gal(b1-3)GlcNAc(b1-3)Gal(b1-4)GlcNAc(b1-3)Gal(b1-4)GlcNAc(b1-2)[Gal(b1-3)GlcNAc(b1-3)Gal(b1-4)GlcNAc(b1-3)Gal(b1-4)GlcNAc(b1-6)]Man(a1-6)[Gal(b1-3)GlcNAc(b1-3)Gal(b1-4)GlcNAc(b1-3)Gal(b1-4)GlcNAc(b1-2)Man(a1-3)]Man(b1-4)GlcNAc(b1-4)[Fuc(a1-6)]GlcNAc
Method in brief: as §1

[25] = biological target: Gal(b1-3)GlcNAc(b1-3)Gal(b1-4)GlcNAc(b1-6)[Gal(b1-3)GlcNAc(b1-3)]Gal(b1-4)Glc
Method in brief: as §1

[26] = biological target: Gal(b1-3)GlcNAc(b1-3)Gal(b1-4)[Fuc(a1-3)]GlcNAc
Method in brief: as §1

[27] = biological target: Gal(b1-3)GlcNAc(b1-3)Gal(b1-4)[Fuc(a1-3)]GlcNAc(b1-6)[Gal(b1-3)GlcNAc(b1-3)]Gal(b1-4)Glc
Method in brief: as §1

[28] = biological target: Gal(b1-3)GlcNAc(b1-3)GalNAc
Method in brief: as §1

[29] = biological target: Gal(b1-3)GlcNAc(b1-6)Gal(b1-4)GlcNAc
Method in brief: as §1

[30] = biological target: Gal(b1-3)GlcNAc(b1-6)GalNAc
Method in brief: as §1

[31] = biological target: Gal(b1-3)GlcNAc(b1-6)[Gal(b1-3)]GalNAc
Method in brief: as §1

[32] = biological target: Gal(b1-3)GlcNAc6S
Method in brief: as §1

[33] = biological target: Gal(b1-3)[Fuc(a1-4)]GlcNAc
Method in brief: as §1

[34] = biological target: Gal(b1-3)[Fuc(a1-4)]GlcNAc(b1-2)Man
Method in brief: as §1

[35] = biological target: Gal(b1-3)[Fuc(a1-4)]GlcNAc(b1-2)Man(a1-3)[Gal(b1-3)[Fuc(a1-4)]GlcNAc(b1-2)Man(a1-6)]Man(b1-4)GlcNAc(b1-4)[Fuc(a1-6)]GlcNAc
Method in brief: as §1

[36] = biological target: Gal(b1-3)[Fuc(a1-4)]GlcNAc(b1-3)Gal(b1-3)[Fuc(a1-4)]GlcNAc
Method in brief: as §1

[37] = biological target: Gal(b1-3)[Fuc(a1-4)]GlcNAc(b1-3)Gal(b1-4)[Fuc(a1-3)]GlcNAc
Method in brief: as §1

B1: PX14367A-bth-493-35-493 (Bacteroides thetaiotaomicron) (protein)
chain: VSSDQVAVAGNAERLFNGAWYNLFEYGTTYANIGYRALQCQDDMMASDVVSRPKYGFNSSYQFNDVAIPSDGRTSFAWYLIYKTIDNCNTAISIKGDSEELRQAQGQALALRAFCYLHLVQHYQFTYLKDKDAPCVPIYTEPTTSGTKPKGKSTVAQVYQQIFDDLNLAQDYLTNYVRKGDGQKFKPNTDVVNGLMARAYLLTGQWGEAAKAAEAARKGYSLMTTTAEYEGFNNISNKEWIWGSPQTLSQSDASYNFYYLDATYVGAYSSFMADPHLMDTFVKGDIRLPLFQWMREGYLGYKKFHMRSDDTADLVLMRSAEMYLIEAEAKVRDGVALDQAVAPLNTLRTARGVGNYDVTGKTKEQVIDEILMERRRELWGEGFGITDVLRNQKAVERMALSEDMQKTEVDCWQEGGSFAKRNPLGHWFLNFPDGKAFSANSSYYLYAIPEKEINANPNL
[1]
  glycan array binding signal (z-score): 0.286
[2]
  glycan array binding signal (z-score): -0.437
[3]
  glycan array binding signal (z-score): -0.434
[4]
  glycan array binding signal (z-score): -0.295
[5]
  glycan array binding signal (z-score): -0.428
[6]
  glycan array binding signal (z-score): 0.204
[7]
  glycan array binding signal (z-score): -0.328
[8]
  glycan array binding signal (z-score): -0.087
[9]
  glycan array binding signal (z-score): -0.527
[10]
  glycan array binding signal (z-score): -0.367
[11]
  glycan array binding signal (z-score): -0.271
[12]
  glycan array binding signal (z-score): -0.265
[13]
  glycan array binding signal (z-score): -0.24
[14]
  glycan array binding signal (z-score): 0.115
[15]
  glycan array binding signal (z-score): 1.11
[16]
  glycan array binding signal (z-score): 1.58
[17]
  glycan array binding signal (z-score): 1.39
[18]
  glycan array binding signal (z-score): 0.187
[19]
  glycan array binding signal (z-score): -0.152
[20]
  glycan array binding signal (z-score): -0.503
[21]
  glycan array binding signal (z-score): -0.664
[22]
  glycan array binding signal (z-score): 0.827
[23]
  glycan array binding signal (z-score): 0.717
[24]
  glycan array binding signal (z-score): 1.97
[25]
  glycan array binding signal (z-score): -0.479
[26]
  glycan array binding signal (z-score): -0.574
[27]
  glycan array binding signal (z-score): -0.047
[28]
  glycan array binding signal (z-score): -0.446
[29]
  glycan array binding signal (z-score): -0.759
[30]
  glycan array binding signal (z-score): -0.62
[31]
  glycan array binding signal (z-score): -0.395
[32]
  glycan array binding signal (z-score): -0.62
[33]
  glycan array binding signal (z-score): -0.11
[34]
  glycan array binding signal (z-score): -0.054
[35]
  glycan array binding signal (z-score): 0.353
[36]
  glycan array binding signal (z-score): -0.392
[37]
  glycan array binding signal (z-score): -0.233
